# At least one peptide structure holds a part that was inferred or is arguable (an end, a ring closure or a residue). At least one structure is not confirmed: it was looked up by name or label, or the drawing left a doubt. Some compounds share one wording; it may come from a single statement. *1 amine or outer side, *2 acyl side, *3 side chain or, on linkers, in order; H or OH if unused. Where a SMILES comes first, the peptide text is derived from it. Side-chain parts run from the residue outwards. [ ]: non-standard residue; d: D form. The star is where a group is joined. γGlu = O=C(O)[C@H](CCC(=O)[*:2])N[*:1]; Stearoyl = CCCCCCCCCCCCCCCCCC(=O)*; AEEA = NCCOCCOCC(=O)O; Aib = CC(C)(N)C(=O)O
# How the values were obtained:
# Human glucagon receptors = Human glucagon receptors (Homo sapiens, UniProt P47871); test: Glucagon receptor activation assay (CRE-luciferase reporter, CHO-K1); conditions: for activity on glucagon receptors (in words): comparison in text of Table 5 results; for EC50: read-out: EC50(pM) On glucagon receptors, CHO-K1 transiently expressing human glucagon receptor, luciferase, 6 hours, 0.1% BSA
# Chain of Human glucagon receptors (P47871 26-477): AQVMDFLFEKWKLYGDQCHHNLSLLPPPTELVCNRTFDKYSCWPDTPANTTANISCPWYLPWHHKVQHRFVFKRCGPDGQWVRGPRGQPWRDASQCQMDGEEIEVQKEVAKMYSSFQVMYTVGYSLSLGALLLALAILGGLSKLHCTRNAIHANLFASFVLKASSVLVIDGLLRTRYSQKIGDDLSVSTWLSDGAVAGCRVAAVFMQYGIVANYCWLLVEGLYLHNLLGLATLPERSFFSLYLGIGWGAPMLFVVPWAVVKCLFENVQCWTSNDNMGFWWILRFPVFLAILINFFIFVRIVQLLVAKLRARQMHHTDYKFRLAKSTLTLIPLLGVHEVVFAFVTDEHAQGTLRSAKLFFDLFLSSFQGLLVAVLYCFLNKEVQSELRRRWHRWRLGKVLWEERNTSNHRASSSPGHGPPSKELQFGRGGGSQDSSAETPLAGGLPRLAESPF
# Human GLP-1 receptors = Human GLP-1 receptors (Homo sapiens, UniProt P43220); test: GLP-1 receptor activation assay (CRE-luciferase reporter, CHO-K1); conditions: for EC50: read-out: EC50(pM) On GLP-1 receptors, CHO-K1 transiently expressing human GLP-1 receptor, luciferase, 6 hours, 0.1% BSA; for activity on GLP-1 receptors (in words): comparison in text of Table 5 results
# Chain of Human GLP-1 receptors (P43220 24-463): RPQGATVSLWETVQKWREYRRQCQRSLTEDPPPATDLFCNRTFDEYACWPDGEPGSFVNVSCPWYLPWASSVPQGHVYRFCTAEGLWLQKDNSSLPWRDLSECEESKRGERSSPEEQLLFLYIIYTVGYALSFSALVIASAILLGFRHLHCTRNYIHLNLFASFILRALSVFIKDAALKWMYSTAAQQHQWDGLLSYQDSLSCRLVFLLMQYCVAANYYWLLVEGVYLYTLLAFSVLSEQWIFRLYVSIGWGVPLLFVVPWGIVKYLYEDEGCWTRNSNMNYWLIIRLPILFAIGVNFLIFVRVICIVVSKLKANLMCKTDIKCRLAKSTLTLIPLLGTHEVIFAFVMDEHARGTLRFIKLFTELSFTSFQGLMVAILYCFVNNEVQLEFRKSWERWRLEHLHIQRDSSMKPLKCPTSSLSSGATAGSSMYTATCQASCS
Compound,EC50 (Human glucagon receptors) [pM],EC50 (Human GLP-1 receptors) [pM],activity on glucagon receptors (in words) (Human glucagon receptors),activity on GLP-1 receptors (in words) (Human GLP-1 receptors)
"CSCC[C@H](NC(=O)[C@H](CC(C)C)NC(=O)[C@H](Cc1c[nH]c2ccccc12)NC(=O)[C@H](CCC(N)=O)NC(=O)[C@@H](NC(=O)[C@H](Cc1ccccc1)NC(=O)[C@H](CCC(=O)O)NC(=O)[C@@H]1CCCCNC(=O)CC[C@H](NC(=O)[C@H](CC(=O)O)NC(=O)[C@H](CC(C)C)NC(=O)[C@H](Cc2ccc(O)cc2)NC(=O)[C@H](CCCCN)NC(=O)[C@H](CO)NC(=O)[C@H](Cc2ccc(O)cc2)NC(=O)[C@H](CC(=O)O)NC(=O)[C@H](CO)NC(=O)[C@@H](NC(=O)[C@H](Cc2ccccc2)NC(=O)[C@@H](NC(=O)CNC(=O)[C@H](CCC(N)=O)NC(=O)C(C)(C)NC(=O)[C@@H](N)Cc2c[nH]cn2)[C@@H](C)O)[C@@H](C)O)C(=O)N[C@@H](CCCCN)C(=O)N[C@@H](CCCNC(=N)N)C(=O)N[C@@H](C)C(=O)N1)C(C)C)C(=O)N[C@@H](CC(N)=O)C(=O)N[C@H](C(=O)N[C@@H](CCCCN)C(=O)N[C@@H](CS)C(=O)O)[C@@H](C)O [Compound 47, reference compound]",,,lower activity on glucagon receptors compared to Compound 14,
CSCC[C@H](NC(=O)[C@H](CC(C)C)NC(=O)[C@H](Cc1c[nH]c2ccccc12)NC(=O)[C@H](CCC(N)=O)NC(=O)[C@@H](NC(=O)[C@H](Cc1ccccc1)NC(=O)[C@H](CC(=O)O)NC(=O)[C@H](CCC(N)=O)NC(=O)[C@H](C)NC(=O)[C@H](CCCNC(=N)N)NC(=O)[C@H](CCCNC(=N)N)NC(=O)C(C)(C)NC(=O)[C@H](CC(=O)O)NC(=O)[C@H](CC(C)C)NC(=O)[C@H](Cc1ccc(O)cc1)NC(=O)[C@H](CCCCN)NC(=O)[C@H](CO)NC(=O)[C@H](CCCCNC(=O)COCCOCCNC(=O)COCCOCCNC(=O)CC[C@H](NC(=O)CCCCCCCCCCCCCCC(=O)NCC(=O)O)C(=O)O)NC(=O)[C@H](CC(=O)O)NC(=O)[C@H](CO)NC(=O)[C@@H](NC(=O)[C@H](Cc1ccccc1)NC(=O)[C@@H](NC(=O)CNC(=O)[C@H](CCC(N)=O)NC(=O)C(C)(C)NC(=O)[C@@H](N)Cc1c[nH]cn1)[C@@H](C)O)[C@@H](C)O)C(C)C)C(=O)N[C@@H](CC(N)=O)C(=O)N[C@H](C(=O)N[C@@H](CCCCN)C(=O)O)[C@@H](C)O [Compound 45],,,lower activity on GLP-1 and glucagon receptors compared to Compound 3,lower activity on GLP-1 and glucagon receptors compared to Compound 3
CCCCCCCCCCCCCCCCCC(=O)N[C@@H](CCC(=O)NCCOCCOCC(=O)NCCOCCOCC(=O)NCCCC[C@H](NC(=O)[C@H](CO)NC(=O)[C@@H](NC(=O)[C@H](Cc1ccccc1)NC(=O)[C@@H](NC(=O)CNC(=O)[C@H](CCC(N)=O)NC(=O)C(C)(C)NC(=O)[C@@H](N)Cc1c[nH]cn1)[C@@H](C)O)[C@@H](C)O)C(=O)N[C@@H](Cc1ccc(O)cc1)C(=O)N[C@@H](CO)C(=O)N[C@@H](CCCCN)C(=O)N[C@@H](Cc1ccc(O)cc1)C(=O)N[C@@H](CC(C)C)C(=O)N[C@@H](CC(=O)O)C(=O)NC(C)(C)C(=O)N[C@@H](CCCNC(=N)N)C(=O)N[C@@H](CCCNC(=N)N)C(=O)N[C@@H](C)C(=O)N[C@@H](CCC(N)=O)C(=O)N[C@@H](CC(=O)O)C(=O)N[C@@H](Cc1ccccc1)C(=O)N[C@H](C(=O)N[C@@H](CCC(N)=O)C(=O)N[C@@H](Cc1c[nH]c2ccccc12)C(=O)N[C@@H](CC(C)C)C(=O)N[C@@H](CCSC)C(=O)N[C@@H](CC(N)=O)C(=O)N[C@H](C(=O)N[C@@H](CCCCN)C(=O)O)[C@@H](C)O)C(C)C)C(=O)O [Compound 40] (H-H[Aib]QGTFTSK([AEEA-AEEA-γGlu-Stearoyl])YSKYLD[Aib]RRAQDFVQWLMNTK-OH),,,"much lower activity on GLP-1 and glucagon receptors compared to Compounds 3, 15, and 16","much lower activity on GLP-1 and glucagon receptors compared to Compounds 3, 15, and 16"

# More lines, main results first:
EC50 (Human glucagon receptors) [pM],EC50 (Human GLP-1 receptors) [pM],Compound,activity on glucagon receptors (in words) (Human glucagon receptors),activity on GLP-1 receptors (in words) (Human GLP-1 receptors)
< 10,< 10,"CCCCCCCCCCCCCCCCCC(=O)N[C@@H](CCC(=O)NCCOCCOCC(=O)NCCOCCOCC(=O)NCCCC[C@H](NC(=O)[C@H](CC(=O)O)NC(=O)[C@H](CO)NC(=O)[C@@H](NC(=O)[C@H](Cc1ccccc1)NC(=O)[C@@H](NC(=O)CNC(=O)[C@H](CCC(N)=O)NC(=O)C(C)(C)NC(=O)[C@@H](N)Cc1c[nH]cn1)[C@@H](C)O)[C@@H](C)O)C(=O)N[C@@H](CO)C(=O)N[C@@H](CCCCN)C(=O)N[C@@H](Cc1ccc(O)cc1)C(=O)N[C@@H](CC(C)C)C(=O)N[C@@H](CC(=O)O)C(=O)N[C@H]1CCC(=O)N[C@@H](CC(C)C)C(=O)NCCCC[C@@H](C(=O)N[C@@H](CC(=O)O)C(=O)N[C@@H](Cc2ccccc2)C(=O)N[C@H](C(=O)N[C@@H](CCC(N)=O)C(=O)N[C@@H](Cc2c[nH]c3ccccc23)C(=O)N[C@@H](CC(C)C)C(=O)N[C@@H](CCSC)C(=O)N[C@@H](CC(N)=O)C(=O)N[C@H](C(=O)N[C@@H](CCCCN)C(=O)O)[C@@H](C)O)C(C)C)NC(=O)[C@H](C)NC(=O)[C@H](CCCNC(=N)N)NC(=O)[C@H](CCCNC(=N)N)NC1=O)C(=O)O [Compound 36, H-HAibQGTFTSPZSKYLDERRAKDFVQWLMNTK-OH]",,
< 10,< 10,"CCCCCCCCCCCCCCCCCC(=O)N[C@@H](CCC(=O)NCCOCCOCC(=O)NCCOCCOCC(=O)NCCCC[C@H](NC(=O)[C@H](CC(=O)O)NC(=O)[C@H](CO)NC(=O)[C@@H](NC(=O)[C@H](Cc1ccccc1)NC(=O)[C@@H](NC(=O)CNC(=O)[C@H](CCC(N)=O)NC(=O)C(C)(C)NC(=O)[C@@H](N)Cc1c[nH]cn1)[C@@H](C)O)[C@@H](C)O)C(=O)N[C@@H](CO)C(=O)N[C@@H](CCCCN)C(=O)N[C@@H](Cc1ccc(O)cc1)C(=O)N[C@@H](CC(C)C)C(=O)N[C@@H](CC(=O)O)C(=O)N[C@@H](CO)C(=O)N[C@@H](CCCNC(=N)N)C(=O)N[C@@H](CCCNC(=N)N)C(=O)N[C@@H](C)C(=O)N[C@@H](CCC(N)=O)C(=O)N[C@@H](CC(=O)O)C(=O)N[C@@H](Cc1ccccc1)C(=O)N[C@H](C(=O)N[C@@H](CCC(N)=O)C(=O)N[C@@H](Cc1c[nH]c2ccccc12)C(=O)N[C@@H](CC(C)C)C(=O)N[C@@H](CCSC)C(=O)N[C@@H](CC(N)=O)C(=O)N[C@H](C(=O)N[C@@H](CCCCN)C(=O)O)[C@@H](C)O)C(C)C)C(=O)O [Compound 2, H-HAibQGTFTSDZSKYLDSRRAQPFVQWLMNTK-OH] (H-H[Aib]QGTFTSDK([AEEA-AEEA-γGlu-Stearoyl])SKYLDSRRAQDFVQWLMNTK-OH)",,
< 10,< 10,CCCCCCCCCCCCCCCCCC(=O)N[C@@H](CCC(=O)NCCOCCOCC(=O)NCCCC[C@H](NC(=O)[C@H](CC(=O)O)NC(=O)[C@H](CO)NC(=O)[C@@H](NC(=O)[C@H](Cc1ccccc1)NC(=O)[C@@H](NC(=O)CNC(=O)[C@H](CCC(N)=O)NC(=O)C(C)(C)NC(=O)[C@@H](N)Cc1c[nH]cn1)[C@@H](C)O)[C@@H](C)O)C(=O)N[C@@H](CO)C(=O)N[C@@H](CCCCN)C(=O)N[C@@H](Cc1ccc(O)cc1)C(=O)N[C@@H](CC(C)C)C(=O)N[C@@H](CC(=O)O)C(=O)NC(C)(C)C(=O)N[C@@H](CCCNC(=N)N)C(=O)N[C@@H](CCCNC(=N)N)C(=O)N[C@@H](C)C(=O)N[C@@H](CCC(N)=O)C(=O)N[C@@H](CC(=O)O)C(=O)N[C@@H](Cc1ccccc1)C(=O)N[C@H](C(=O)N[C@@H](CCC(N)=O)C(=O)N[C@@H](Cc1c[nH]c2ccccc12)C(=O)N[C@@H](CC(C)C)C(=O)N[C@@H](CCSC)C(=O)N[C@@H](CC(N)=O)C(=O)N[C@H](C(=O)N[C@@H](CCCCN)C(=O)O)[C@@H](C)O)C(C)C)C(=O)O [Compound 17],outstanding activity on GLP-1 and glucagon receptors,outstanding activity on GLP-1 and glucagon receptors
